Source: PubChem BioAssay (NCATS)
The shares of active, inactive and inconclusive entries below differ from those in the screen. For part of these data: No potency is given beside an inconclusive call; the fits are too rough. The source made the active and inactive calls. Unless noted, calls come from the whole dose curve; as a rule, active = well fitted curve in either direction with a large enough effect (not every such curve was filed as active); inconclusive = small, poorly fitted or top-dose-only effect, or another doubt; inactive = flat fitted curve, though single readings scatter.

System: not listed separately
Experiment: AP1 Signaling Pathway (AID 357);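 note: ME-180 reporter cells stimulated with EGF at its EC50 level; top concentration of the series differs between compounds; % is set by controls: 0 for no effect and ±100 for the full control effect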
Settings: ME-180 AP-1-bla reporter, EGF-induced, beta-lactamase ratio, 5 h; at 7.69 µM (top of the series) unless noted
How it was run: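 A ratiometric CCF4 readout (405 nm excitation; 460 and 530 nm emission) quantified AP-1-driven beta-lactamase in ME-180 cells after 5 h with compound and EC50 EGF; AC50 values were derived for activators and inhibitors.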
Tags give direction and shape of the fitted curve.

| Structure (SMILES) | activity change, negative = inhibition |
| --- | --- |
| Cc1cnc(CNc2ncnc3ccc(-c4ccc(N(C)C)cc4)cc23)cn1 | inconclusive: -33.2% [inhibitor] |
| COc1ccc2[nH]cc(CCNc3cc(-c4ccccc4OC)ncn3)c2c1 | inconclusive: -35.7% [inhibitor] |
| CN(Cc1ccco1)c1ncnc2ccc(-c3cccc(NS(C)(=O)=O)c3)cc12 | inconclusive: -40.9% [inhibitor] |
| COc1ccccc1-c1ccc2ncnc(NCCN3CCOCC3)c2c1 | inconclusive: 2.68% [activator] |
| CN(C)C(=O)c1ccc(-c2nc(-n3ccnc3)c3ccccc3n2)cc1 | inconclusive: -35% [inhibitor] |
| CN(Cc1ccco1)c1ncnc2ccc(-c3ccccc3C#N)cc12 | inactive: -26.1% |
| FC(F)(F)c1ccccc1-c1cncnc1NCCN1CCOCC1 | inconclusive: 60.6% [activator] |
| CNc1ccnc(-c2ccccc2C)n1 | inactive: 0.123% |
| CNc1nc(-c2ccccc2CN(C)C)nc2ccccc12 | inconclusive: 30.1% [activator] |
| O=c1c(-c2cccs2)nc2cnc(N3CCNCC3)nc2n1Cc1cccs1 | inconclusive: 58.1% [activator] |
| COc1ccc(Oc2ncc3nc(-c4cccc(C#N)c4)c(=O)n(CCC#N)c3n2)cc1 | inactive: -20.3% |

System: not listed separately
Experiment: NFAT Signaling Pathway (AID 444);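 note: carbachol stimulus at about its EC50 of 1 µM final; % is set by controls: 0 for no effect and ±100 for the full control effect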
Settings: Jurkat NFAT-bla M1, carbachol, beta-lactamase ratio, 5 h; at 7.69 µM (top of the series) unless noted
How it was run: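 Jurkat cells carrying an NFAT-driven β-lactamase reporter and co-transfected muscarinic M1 receptor were treated with compound plus carbachol (1 uM final, an EC50 level) for 5 h at 37 °C. CCF4 loading followed for 1 h at RT; 460/530 nm ratio gave %activity.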

| Structure (SMILES) | activity change, negative = inhibition |
| --- | --- |
| Cc1noc(C)c1-c1ccc2ncnc(Nc3ccccc3)c2c1 | inconclusive: -50% [inhibitor] |
| COc1cccc(Nc2ncc3nc(-c4cccs4)c(=O)n(CCC#N)c3n2)c1 | inconclusive: -82.8% [inhibitor] |
| CN1CCN(c2ncc3ncc(=O)n(-c4ccccc4)c3n2)CC1 | inactive: -18.4% |
| COc1ccc(-c2nc3cnc(OC)nc3n(C)c2=O)cc1 | inactive: -0.516% |
| CN1CCN(c2ncc3nc(-c4cccc(C#N)c4)c(=O)n(C)c3n2)CC1 | inactive: 13.1% |
| CN(Cc1ccco1)c1ncnc2ccc(-c3ccccc3C#N)cc12 | inactive: 7.18% |
| FC(F)(F)c1ccccc1-c1cncnc1NCCN1CCOCC1 | inconclusive: -109% [inhibitor] |
| COc1cccc(Cn2c(=O)c(CCc3ccccc3)nc3cnc(N4CCN(C)CC4)nc32)c1 | inactive: 8.33% |
| O=c1c(-c2cccs2)nc2cnc(N3CCNCC3)nc2n1Cc1cccs1 | inconclusive: 36.4% [activator] |
| CN(C)c1ncnc2ccc(-c3cccnc3)cc12 | inconclusive: 50.1% [activator] |
| COc1ccc(Oc2ncc3nc(-c4cccc(C#N)c4)c(=O)n(CCC#N)c3n2)cc1 | inactive: 14.2% |

System: not listed separately
Experiment: Stat Signaling Pathway (AID 446);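 note: ME-180 cervical cancer cells given 40 pM IL-6 alongside compound; SIE-controlled beta-lactamase reporter measured as 460/530 nm FRET emission ratio; top concentration of the series differs between compounds; % is set by controls: 0 for no effect and ±100 for the full control effect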
Settings: ME-180 SIE beta-lactamase reporter, IL-6 stimulated, 5 h; at 7.69 µM (top of the series) unless noted
How it was run: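 ME-180 cells carrying a SIE-driven beta-lactamase reporter are stimulated with 40 pM IL-6 for 5 h at 37C in the presence of compound. The 460/530 nm FRET substrate ratio is read after 2.5 h at RT. Data are normalised to 300 pM IL-6 and to 125 nM JAK inhibitor controls.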

| Structure (SMILES) | activity, negative = inhibition |
| --- | --- |
| Cc1noc(C)c1-c1ccc2ncnc(Nc3ccccc3)c2c1 | inconclusive: -30.4% [inhibitor] |
| COc1cccc(Nc2ncc3nc(-c4cccs4)c(=O)n(CCC#N)c3n2)c1 | inconclusive: -35.9% [inhibitor] |
| CCNc1ncc2nc(-c3ccc(F)cc3)c(=O)n(CCc3ccccc3)c2n1 | inconclusive: 35.2% [activator] |
| COc1ccc(Oc2ncc3nc(-c4ccc(Cl)cc4)c(=O)n(C4CC4)c3n2)cc1 | inactive: -1.97% |
| O=c1c(-c2cccs2)nc2cnc(N3CCNCC3)nc2n1Cc1cccs1 | inconclusive: 201% [activator] |

Target: Mitogen-activated protein kinase 10 (Mus musculus) (UniProt Q61831)
Experiment: JNK3 AlphaScreen Assay (AID 530);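 note: kinase came from lysate of stimulated human HepG2 cells; signal reports phosphorylation of biotinylated GST-cJun 1-79 at Ser73 with 10 µM ATP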; note: potency is the fitted concentration of half-maximal effect; for activity change, negative = inhibition: % is set by controls: 0 for no effect and ±100 for the full control effect
Settings: JNK3 lysate, c-Jun phosphorylation; activity change, negative = inhibition: at 57.1 µM (top of the series)
How it was run: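 Inhibitors reduce antibody binding to phosphorylated biotin-cJun, lowering AlphaScreen luminescence. Lysates from HepG2 cells pre-activated by IL-1beta plus TNF-alpha supplied JNK3; compounds were titrated.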

| Structure (SMILES) | Potency | activity change, negative = inhibition |
| --- | --- | --- |
| Cc1cnc(CNc2ncnc3ccc(-c4ccc(N(C)C)cc4)cc23)cn1 | inconclusive [inhibitor, single point] |  |
| c1cncc(CNc2ccnc(-c3ccc4c(c3)OCO4)n2)c1 | inconclusive [inhibitor, partial curve] |  |
| Cc1noc(C)c1-c1nccc(NCc2ccccc2)n1 |  | inactive: 1.19% |
| COc1cccc(Cn2c(=O)c(C)nc3cnc(N(C)C)nc32)c1 | inconclusive [activator, single point] |  |
| COc1cccc(-c2nc(NCCN3CCOCC3)c3ccccc3n2)c1 |  | inactive: -0.916% |
| COc1cccc(Cn2c(=O)c(CCc3ccccc3)nc3cnc(N4CCN(C)CC4)nc32)c1 |  | inactive: -8.95% |

Target: 3',5'-cyclic-AMP phosphodiesterase 4B (Homo sapiens) (UniProt Q07343)
Chain of UniProt Q07343 (Q07343 whole entry, looked up): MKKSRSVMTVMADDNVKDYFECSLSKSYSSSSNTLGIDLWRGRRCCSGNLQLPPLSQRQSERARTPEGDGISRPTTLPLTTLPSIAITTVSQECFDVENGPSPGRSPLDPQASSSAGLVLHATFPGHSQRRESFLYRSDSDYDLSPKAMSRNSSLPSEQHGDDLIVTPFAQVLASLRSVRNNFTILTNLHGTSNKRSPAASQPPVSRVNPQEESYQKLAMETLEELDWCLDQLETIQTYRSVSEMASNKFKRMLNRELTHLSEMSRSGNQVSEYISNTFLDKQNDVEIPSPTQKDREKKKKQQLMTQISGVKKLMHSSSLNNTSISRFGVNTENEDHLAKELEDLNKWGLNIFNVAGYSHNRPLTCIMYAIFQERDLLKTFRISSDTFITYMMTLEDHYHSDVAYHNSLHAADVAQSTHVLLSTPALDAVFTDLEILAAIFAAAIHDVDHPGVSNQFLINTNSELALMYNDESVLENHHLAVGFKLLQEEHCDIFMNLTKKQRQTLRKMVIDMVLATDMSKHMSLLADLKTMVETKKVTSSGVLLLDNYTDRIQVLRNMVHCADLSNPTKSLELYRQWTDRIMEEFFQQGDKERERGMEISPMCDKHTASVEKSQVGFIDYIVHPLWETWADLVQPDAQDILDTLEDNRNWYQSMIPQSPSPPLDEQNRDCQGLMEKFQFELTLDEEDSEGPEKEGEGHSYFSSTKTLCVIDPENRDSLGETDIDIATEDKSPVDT
Experiment: qHTS Assay for Inhibitors of PDE-IV (AID 607; active = well fitted activation curve with a large enough effect in the main read-out, with a control signal flat, not every such curve was filed as active; inconclusive = small, poorly fitted or top-dose-only effect, or effect the other way, or a change in a side signal; note: potency is the fitted concentration of half-maximal effect; for activation (PDE inhibition): % of control where 0% means no effect)
Settings: HEK293 ACTOne CNG channel cells, membrane potential fluorescence; activation (PDE inhibition): at 22.9 µM (top of the series)
How it was run: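 HEK293 ACTOne cells with CNG channel (1000/well), endogenous PDE4; membrane potential dye, compounds up to 22.9 uM final. Fluorescence Ex 535/Em 590; RO 20-1724 (100 uM final) as reference.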

| Structure (SMILES) | Potency | activation (PDE inhibition) |
| --- | --- | --- |
| c1cncc(CNc2ccnc(-c3ccc4c(c3)OCO4)n2)c1 | inconclusive [activator, partial curve] |  |
| Cc1noc(C)c1-c1ccc2ncnc(Nc3ccccc3)c2c1 |  | inactive: 11.5% |
| COc1cccc(-c2nccc(NCc3ccc(OC)cc3OC)n2)c1 | inconclusive [activator, single point] |  |
| FC(F)(F)c1ccccc1-c1ccc2ncnc(NCc3cccnc3)c2c1 | inconclusive [activator, partial curve] |  |
| CN(Cc1ccco1)c1ncnc2ccc(-c3cccc(NS(C)(=O)=O)c3)cc12 | inconclusive [activator, partial curve] |  |
| CCNc1ncc2nc(-c3ccc(F)cc3)c(=O)n(CCc3ccccc3)c2n1 | inconclusive [activator, partial curve] |  |
| COc1cccc(Cn2c(=O)c(C)nc3cnc(Nc4cccc(OC)c4)nc32)c1 | inconclusive [activator, single point] |  |
| CN(Cc1ccco1)c1ncnc2ccc(-c3ccccc3C#N)cc12 | inconclusive [activator, partial curve] |  |
| COc1cccc(Cn2c(=O)c(CCc3ccccc3)nc3cnc(N4CCN(C)CC4)nc32)c1 |  | inactive: 7.35% |
| CNc1nc(-c2ccccc2CN(C)C)nc2ccccc12 | inconclusive [rising, partial curve] |  |
| COc1ccc(Oc2ncc3nc(-c4ccc(Cl)cc4)c(=O)n(C4CC4)c3n2)cc1 | inconclusive [activator, single point] |  |
| COc1ccc(Oc2ncc3nc(-c4cccc(C#N)c4)c(=O)n(CCC#N)c3n2)cc1 | inconclusive [activator, full curve, poor fit] |  |
